Publication PMC7618776, “Direct recruitment of Mis18 to interphase spindle pole bodies promotes CENP-A chromatin assembly” (Current biology : CB, 2023)
Results are given in words; binding and its absence hold for the method and conditions named. For part of these data: In cells and extracts the contact can be indirect. Some entries that bind do so weakly or less than the wild type. For part of these data: Tags and fused reporters may be left off the sequences shown. Values belong to the binder of their own block, whether it stands above or below them.

Protein sequences, listed by entry. Tags and fused reporters are not part of them. Lines headed by an entry give the natural chain unless they say otherwise; changes in a name come on top. Residues count along the entry.
UniProt Q09825: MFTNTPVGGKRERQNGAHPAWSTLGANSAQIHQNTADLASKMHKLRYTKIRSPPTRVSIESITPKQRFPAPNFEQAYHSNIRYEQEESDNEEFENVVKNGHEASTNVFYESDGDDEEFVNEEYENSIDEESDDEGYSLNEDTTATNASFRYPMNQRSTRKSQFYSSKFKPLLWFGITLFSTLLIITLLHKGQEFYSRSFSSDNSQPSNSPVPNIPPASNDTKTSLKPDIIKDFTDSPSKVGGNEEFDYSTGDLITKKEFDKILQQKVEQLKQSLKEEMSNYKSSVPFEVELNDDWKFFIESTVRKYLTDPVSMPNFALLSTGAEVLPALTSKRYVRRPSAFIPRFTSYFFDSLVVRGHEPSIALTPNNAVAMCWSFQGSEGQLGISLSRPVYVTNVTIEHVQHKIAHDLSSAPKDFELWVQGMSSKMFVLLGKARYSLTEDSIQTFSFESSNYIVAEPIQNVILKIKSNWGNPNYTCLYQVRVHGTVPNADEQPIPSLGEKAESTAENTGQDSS
6His-Sad1(2-167): residues 2-167 of Q09825

How the values were obtained:
[1] = target: 6His-MBP-Sad1(2-167) (S. pombe) (UniProt Q09825); assay: pull-down; 6His-MBP-Sad1(2-167) or 6His-MBP on amylose resin mixed with candidate binding proteins, each protein at 5 μM; 20 mM HEPES pH 7.0, 150 mM NaCl, 1 mM TCEP, 0.01% Tween-20; 4°C 1 hr; Coomassie-stained SDS-PAGE; both purified
[2] = target: 6His-Sad1(2-167) (S. pombe) (UniProt Q09825); assay: SEC; His-tagged Mis18 full length and Sad1(2-167) expressed individually or co-expressed in E. coli, affinity purified (TALON), Superdex 200 10/300 GL; 20 mM HEPES pH 7.0, 150 mM NaCl, 2 mM DTT; both purified
[3] = target: Sad1-3V5 (C-terminally 3xV5-tagged Sad1) (S. pombe) (UniProt Q09825); assay: co-IP; anti-V5 or anti-Flag M2 antibodies cross-linked to Protein G Dynabeads, S. pombe cell extracts in SPB lysis buffer, benzonase, 4°C 2 hrs, western blotting
Sad1-3Flag (S. pombe) = Sad1-3Flag (S. pombe) (UniProt Q09825); assay: as above

binding [1]: no binding (tested: 5 μM)
B1: 6His-msfGFP-TEV-Mis18(121-194) (domain or fragment, UniProt Q9P802 121-194)
chain: VNPEGLTRYQVDLEMREDIIKLKSFCLSLYEKFELHDETLRSVKETISSLKKPKIEGKEGKKEKARTYSKRTRK

binding [3]: binds
B5: Mis18-3Flag (protein, UniProt Q9P802 1-194)
chain: MSQTETSHSGYIDFKKESQPSVFQCKKCFQIVGDSNAWVISHREYLSFTLSDAVENSVRVEDTFKRSDDGLCVYSELSCTRCNEVIGKVYNSTPIYLDDIRDMYTFSMDKLQAYQLGNKTVNPEGLTRYQVDLEMREDIIKLKSFCLSLYEKFELHDETLRSVKETISSLKKPKIEGKEGKKEKARTYSKRTRK

binding (Sad1-3Flag (S. pombe)): binds
B6: full length Mis18-3V5 (protein, UniProt Q9P802 1-194)
chain: B5 chain

Continued, binder first:

B2: 6His-3C-Mis18(1-168) (domain or fragment, UniProt Q9P802 1-168)
chain: MSQTETSHSGYIDFKKESQPSVFQCKKCFQIVGDSNAWVISHREYLSFTLSDAVENSVRVEDTFKRSDDGLCVYSELSCTRCNEVIGKVYNSTPIYLDDIRDMYTFSMDKLQAYQLGNKTVNPEGLTRYQVDLEMREDIIKLKSFCLSLYEKFELHDETLRSVKETIS
binding [1]: no binding (tested: 5 μM)

B3: 6His-3C-Mis18(1-120) (domain or fragment, UniProt Q9P802 1-120)
chain: MSQTETSHSGYIDFKKESQPSVFQCKKCFQIVGDSNAWVISHREYLSFTLSDAVENSVRVEDTFKRSDDGLCVYSELSCTRCNEVIGKVYNSTPIYLDDIRDMYTFSMDKLQAYQLGNKT
binding [1]: no binding (tested: 5 μM)

B4: 6His-Mis18 full length (protein, UniProt Q9P802 1-194)
chain: B5 chain
binding [2]: binds
